Hit rate of the full screen: of about 310,000 compounds, about 14,000 (4.5%) showed an effect of 50% or more. The effect is printed as a negative number. This is one part of the list.
Each compound was assayed against human ether-à-go-go-related gene (hERG) potassium channel (human, UniProt Q12809) (assay: primary screen, population patch clamp on CHO cells stably expressing hERG).
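Note: peak tail current of the secondary pulse compared with the same well before compound.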

Chain of human ether-à-go-go-related gene (hERG) potassium channel (Q12809 whole entry, looked up): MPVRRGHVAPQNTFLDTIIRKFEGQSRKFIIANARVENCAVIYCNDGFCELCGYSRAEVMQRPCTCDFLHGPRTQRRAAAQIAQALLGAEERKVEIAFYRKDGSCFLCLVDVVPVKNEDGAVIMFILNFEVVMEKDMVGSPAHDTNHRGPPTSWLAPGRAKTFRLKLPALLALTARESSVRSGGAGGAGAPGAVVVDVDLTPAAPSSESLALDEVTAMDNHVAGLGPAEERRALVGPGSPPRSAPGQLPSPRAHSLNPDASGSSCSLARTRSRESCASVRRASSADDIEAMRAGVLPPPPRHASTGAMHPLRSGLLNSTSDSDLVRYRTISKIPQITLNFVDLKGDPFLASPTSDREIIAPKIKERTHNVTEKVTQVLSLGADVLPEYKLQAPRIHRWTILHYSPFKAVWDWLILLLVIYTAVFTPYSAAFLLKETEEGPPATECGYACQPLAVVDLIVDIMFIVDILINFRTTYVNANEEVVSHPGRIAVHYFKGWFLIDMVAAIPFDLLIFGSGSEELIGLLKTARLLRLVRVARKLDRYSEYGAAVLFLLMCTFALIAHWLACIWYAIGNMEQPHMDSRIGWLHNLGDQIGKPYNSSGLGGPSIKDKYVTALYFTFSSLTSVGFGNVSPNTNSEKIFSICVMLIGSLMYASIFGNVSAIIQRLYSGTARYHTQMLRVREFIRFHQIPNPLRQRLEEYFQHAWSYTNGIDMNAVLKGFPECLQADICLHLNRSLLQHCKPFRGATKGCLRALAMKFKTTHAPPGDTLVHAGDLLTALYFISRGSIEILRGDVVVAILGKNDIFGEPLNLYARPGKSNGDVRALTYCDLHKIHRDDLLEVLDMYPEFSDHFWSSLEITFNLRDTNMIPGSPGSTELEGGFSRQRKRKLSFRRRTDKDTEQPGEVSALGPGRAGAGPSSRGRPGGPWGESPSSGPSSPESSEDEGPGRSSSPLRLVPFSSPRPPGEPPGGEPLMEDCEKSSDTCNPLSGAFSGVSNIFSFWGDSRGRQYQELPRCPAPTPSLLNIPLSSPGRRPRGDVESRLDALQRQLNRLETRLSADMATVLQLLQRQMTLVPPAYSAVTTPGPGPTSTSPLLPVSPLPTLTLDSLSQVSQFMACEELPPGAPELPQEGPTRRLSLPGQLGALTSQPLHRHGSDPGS

SMILES | hERG current change (%, negative = inhibition) at 10uM [%]
O=C(NCC1CCCO1)Nc1cc(Cl)cc(Cl)c1 (centres unmarked) | 8.42
Cc1ccc(NC(=S)N/N=C/c2ccc([N+](=O)[O-])s2)cc1 | -3.04
C/C(=N\Nc1ncc(Cl)cc1Cl)c1ccc(N2CCOCC2)cc1 | 11.1
COc1ccccc1Oc1c(C)oc2c(CN3CCN(C)CC3)c(O)ccc2c1=O | 1.2
O=C(NC(=S)NCc1cccnc1)c1cccc2ccccc12 | 17.2
CCc1ccc(CNC(=O)C2CCC(=O)N2C2CCCCC2)cc1 (centres unmarked) | -8.53
O=S(=O)(c1cc(-c2nnc(-c3ccc(Br)cc3)o2)ccc1Br)N1CCCCCC1 | 6.06
COc1cccc(/C=C2\SC(=S)N(CCCC(=O)Nc3cc(C)on3)C2=O)c1 | 19
Cl.NCCc1nnc(SCc2ccccc2)o1 | 18.2
Cc1ccc(/C=N/NC(=O)c2cccc3ccccc23)o1 | 20.8
O=C(NCc1ccc(Cl)cc1)c1ccc(-n2cccn2)nc1 | 20.5
O=C(O)CNC(=S)N(Cc1ccccc1)Cc1ccccc1F | 33.7
C=C(c1ccccc1)P(=O)(O)O | 17.8
O=C(N/N=C\c1cccnc1)c1cc(-c2ccccc2)nc2c(Cl)cccc12 | -0.984
CCN(c1cccc(C(F)(F)F)c1)S(=O)(=O)c1ccc2c(c1)CCN2C(=O)C1CC1 | -17
CC(C)(CO)NCc1ccccc1OCC(=O)Nc1ccccc1 | -14
CN(C)c1ccc(/C(=N\O)C(F)(F)F)cc1 | 9.81
Cc1sc(N)nc1C12CC3CC(CC(C3)C1)C2 | 10.5
COc1ccc(NC(=O)CCN2CCOCC2)c(OC)c1 | 19.5
NS(=O)(=O)c1ccc(F)c(C(=O)O)c1 | 8.68
CCOC(=O)C(C(=O)OCC)C1N=C(N)N=C2Oc3ccccc3N21 (centres unmarked) | 24.2
O=C(Cc1ccsc1)N1CCN(S(=O)(=O)c2ccccc2F)CC1 | -16.9

SMILES | hERG current change (%, negative = inhibition) at 10uM [%]
CCOC(=O)C1(Cc2cccc(OC)c2)CCN(C2CCOCC2)CC1 | -68.7
Cc1ccc(N2C(=O)C(Cc3ccc(O)cc3)NC2=S)cc1C (centres unmarked) | -7.04
N/C(=N\OC(=O)c1ccccc1)c1ccn[nH]1 | -1.07
COc1ccc(CC(=O)Nc2ccc3nc(SC)sc3c2)cc1OC | 14.7
CC(C)c1ccc(OCC(=O)N(c2ccccn2)C2CCCCC2)cc1 | -14.6
O=C1CC(c2ccccc2Cl)c2c(sc3c(=O)[nH]c(CCl)nc23)N1 (centres unmarked) | 3.47
Cc1cc(O)c(C=Nc2cccc(Cl)c2)c(=O)o1 | 3.23
Cc1cc2cc(CN(Cc3ccco3)S(=O)(=O)c3c(C)ccc4nsnc34)c(=O)[nH]c2cc1C | -2.69
Nc1ccc(Cc2nc3cc4ccccc4cc3[nH]2)cc1 | -4.41
Cc1ccsc1C1Nc2ccccc2C(=O)N1O (centres unmarked) | 3.43
COc1ccc(-n2nc3c(c2NC(=O)C2CC(=O)N(c4ccccc4)C2)CS(=O)(=O)C3)cc1 (centres unmarked) | -1.59
NCCCC[C@@H]1NC(=O)[C@H](CCC(=O)O)NC(=O)c2cc([N+](=O)[O-])cc(I)c2OCC[C@@H](C(N)=O)NC1=O | 4.92
CCOC(=O)C(C)Sc1nc2ccccc2c(=O)n1CC1CCCCC1 (centres unmarked) | -10.1
C/C(CC(=O)Nc1ccc(Cl)c(Cl)c1)=N\NC(=O)Cc1ccccc1 | 0.318
COc1cccc2cc(C(=O)NCc3ccccn3)c(=O)oc12 | 7.92
Cl.N/C(=N\O)C1COc2ccccc2O1 (centres unmarked) | 16.4
Nc1nc(Nc2ccccc2)nc(NC2CCCCC2)c1[N+](=O)[O-] | 18.9
Cc1ccc(NCCC(=O)c2cccs2)cc1 | -2.35
CCC(CC)c1nn2c(N)c(/C=C3\C=Nc4ccccc43)c(=O)nc2s1 | 0.567
CCOC(=O)N1CCN(c2ccc(C(=O)CC)cc2F)CC1 | -9.37
CCN(CC)CCCNC(=S)N(Cc1cccs1)Cc1cc2cc3c(cc2[nH]c1=O)OCCO3 | -19.4
COC(=O)c1c(N2C(=O)[C@H]3[C@@H](C2=O)[C@]2(C(=O)Nc4ccc(C)cc42)N2CCC[C@@H]32)sc(C)c1C | 11.8

Reference: article PMC4336329 (PLoS ONE, 2015)
